# Assay results as given in PMC4336329 (PLoS ONE, 2015).
# Among all 310,000 compounds or so, about 14,000 (4.5%) showed an effect of 50% or more. The effect is printed as a negative number. The list shows a part of the results.
# Target: human ether-à-go-go-related gene (hERG) potassium channel (human, UniProt Q12809)
# Assay: primary screen, population patch clamp on CHO cells stably expressing hERG
# 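Note: peak tail current of the secondary pulse compared with the same well before compound.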
# human ether-à-go-go-related gene (hERG) potassium channel, sequence (Q12809 whole entry, looked up): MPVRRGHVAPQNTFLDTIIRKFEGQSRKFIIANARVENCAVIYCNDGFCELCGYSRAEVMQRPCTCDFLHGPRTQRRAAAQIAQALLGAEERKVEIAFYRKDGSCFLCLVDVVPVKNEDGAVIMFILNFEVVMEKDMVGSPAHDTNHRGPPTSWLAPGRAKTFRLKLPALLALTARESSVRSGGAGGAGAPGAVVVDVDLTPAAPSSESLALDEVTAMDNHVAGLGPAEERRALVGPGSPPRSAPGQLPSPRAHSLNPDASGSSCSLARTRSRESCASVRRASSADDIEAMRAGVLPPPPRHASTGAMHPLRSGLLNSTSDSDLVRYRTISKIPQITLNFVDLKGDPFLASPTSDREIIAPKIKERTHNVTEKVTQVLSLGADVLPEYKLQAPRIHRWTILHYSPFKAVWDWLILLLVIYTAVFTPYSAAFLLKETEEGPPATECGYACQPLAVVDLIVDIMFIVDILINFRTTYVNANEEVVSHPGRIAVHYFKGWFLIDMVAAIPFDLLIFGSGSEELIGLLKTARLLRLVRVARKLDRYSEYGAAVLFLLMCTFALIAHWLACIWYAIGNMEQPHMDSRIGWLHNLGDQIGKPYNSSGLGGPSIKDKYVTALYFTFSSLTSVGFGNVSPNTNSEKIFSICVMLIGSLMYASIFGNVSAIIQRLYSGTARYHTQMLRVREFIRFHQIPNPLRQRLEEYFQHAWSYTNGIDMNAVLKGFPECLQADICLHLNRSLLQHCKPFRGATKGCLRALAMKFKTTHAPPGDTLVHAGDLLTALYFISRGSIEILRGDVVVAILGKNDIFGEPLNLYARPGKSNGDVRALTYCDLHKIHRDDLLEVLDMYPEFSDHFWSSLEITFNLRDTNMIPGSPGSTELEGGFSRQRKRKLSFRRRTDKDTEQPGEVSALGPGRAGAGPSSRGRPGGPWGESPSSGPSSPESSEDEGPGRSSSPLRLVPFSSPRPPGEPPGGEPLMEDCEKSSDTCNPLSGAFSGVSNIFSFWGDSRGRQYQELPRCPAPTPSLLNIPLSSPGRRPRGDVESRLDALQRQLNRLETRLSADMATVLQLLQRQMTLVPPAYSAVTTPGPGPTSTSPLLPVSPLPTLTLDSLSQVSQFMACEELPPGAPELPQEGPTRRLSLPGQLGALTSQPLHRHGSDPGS
row,Structure (SMILES),"hERG current change (%, negative = inhibition) at 10uM [%]"
1,COC(=O)C1=C(N)OC2=C(C(=O)CC(C)(C)C2)C1c1ccccc1OCC#N (centres unmarked),9.37
2,O=S(=O)(c1cc(Cl)ccc1Br)N1CCCCC1,-22.9
3,NC(=O)c1ccccc1N=Cc1ccc2ccccc2c1,18.3
4,CCOC(=O)c1c(NC(=O)CCC(=O)NCc2ccco2)sc2c1CCCC2,11.3
5,C/C(O)=C(/C=NCC(=O)O)C(=O)Nc1nccs1,7.41
6,O=C(CN1CCN(Cc2ccccc2Cl)CC1)N/N=C/C=C/c1ccccc1[N+](=O)[O-],-71.6
7,CC(C(=O)NCc1ccccc1)N(Cc1ccccc1Cl)C(=O)c1snc(C(N)=O)c1N (centres unmarked),-0.541
8,O=C(Nc1ccccc1Oc1cccnc1)C1CCCN(Cc2cccc(Cl)c2)C1 (centres unmarked),-30.2
9,COC(=O)[C@@]1(Cc2ccc(OC)cc2)[C@H]2c3cc(C(=O)N4CCCC4)n(CCO)c3C[C@H]2CN1C(=O)c1ccccc1,-34.9
10,Cc1ccc(S(=O)(=O)N2CCC(C(=O)NNC(=O)c3ccncc3)CC2)cc1,18.6
11,CCCNC(=O)COc1nc2ccccc2nc1N1CCOCC1,13.4
12,COc1cc(OC)c(C(=O)OCC(=O)N2CCOCC2)cc1OC,7.28
13,CC(=O)NC1CC2CCCC(C1)N2C(=O)Nc1ccc(Cl)c(C(F)(F)F)c1 (centres unmarked),-3.34
14,CCOC(=O)C(C)Oc1ccc2c(-c3cccc([N+](=O)[O-])c3)cc(=O)oc2c1 (centres unmarked),-62.4
15,CCC(CC)C(=O)Nc1cccc(C(=O)c2ccccc2)c1,-28.1
16,CCCCc1c(O)nc(SCC(=O)Nc2cccc3ccccc23)n(-c2ccccc2OC)c1=O,3.39
17,CC(C)CC(NC(=O)C1CCC(C)CC1)C(=O)Nc1ccccc1F (centres unmarked),14.1
18,O=C(NCc1ccccc1)C(c1cccs1)N(C(=O)c1csnn1)C1CC1 (centres unmarked),-15
19,CCC(C(=O)OCC(=O)N1C(C)CCCC1C)c1ccccc1 (centres unmarked),1.72
20,COCCCNC(=O)CCC(=O)NNc1nc2ccccc2c2nc(-c3ccccc3)nn12,-40.5
21,CN(CC(=O)Nc1cccc(F)c1)C(=O)c1ccccc1OCC(=O)Nc1cccc(C(F)(F)F)c1,-1.87
22,O=C(CN1CCN(c2ccc(F)cc2)CC1)Nc1ccccc1,6.74

row,Structure (SMILES),"hERG current change (%, negative = inhibition) at 10uM [%]"
1,C=CCOc1ccc(Br)cc1/C=N/O,-1.48
2,CCCCn1c(=N)n(CC(O)COc2ccccc2)c2ccccc21 (centres unmarked),-73.1
3,O=C(CCC(=O)N1CC2C[C@@H](C1)Cn1c2cccc1=O)NCCc1ccccc1,-3.02
4,COc1ccc(C2=NS(=O)(=O)N(C)C(C(=O)NCc3ccc4c(c3)OCO4)=C2)cc1OC,-34.9
5,Cc1cccn2c(=O)c3cc(C(=O)NC(C)C)c(=N)n(Cc4ccncc4)c3nc12,-72.4
6,COc1cccc(NC(=O)COC(=O)c2ccccc2SCC(=O)N2CCCC2)c1,-5.38
7,Cc1cc(=O)n2[nH]c(-c3ccccc3Cl)cc2n1,8.79
8,COc1cccc(NC(=O)c2oc3ccccc3c2NC(=O)c2ccc3c(c2)OCO3)c1,5.18
9,O=C(NCc1ccccc1)C1CCCN(S(=O)(=O)c2cccc3nonc23)C1 (centres unmarked),9.65
10,O=C(CCC1CCCN(C(=O)c2ccncc2)C1)NCc1ccc(F)c(F)c1 (centres unmarked),-1.99
11,O=C(NCc1ccccc1)c1cccc(COc2ccccc2Cl)c1,-6.41
12,O=Cc1nc(-c2ccc(Cl)cc2)n2ccccc12,-19.3
13,Cc1c(Cl)cccc1-n1c(SCC(=O)N(C)Cc2ccccc2)nnc1-c1ccncc1,-49.5
14,O=C(CN1CCCCC1)N/N=C/c1cccc(Cl)c1,-35.6
15,O=S(=O)(c1cccc(S(=O)(=O)N2CCN(c3ncccn3)CC2)c1)N1CCOCC1,-8.31
16,Cc1ccc(OCc2cc(C(=O)N3CCC(c4ccccc4Cl)C3)no2)cc1C (centres unmarked),-3.92
17,Cn1ncc(Br)c1NC(=O)CSc1ccc(Cl)cc1,4.1
18,CN(CC(=O)Nc1ccccc1Br)C(=O)c1ccc2c(=O)n3c(nc2c1)CCC3,-2.34
19,Oc1ccc2c(ccc3[nH]cnc32)c1,25.8
20,O=C(CCS(=O)(=O)c1ccc(Cl)cc1)N1CCN(c2ccccc2F)CC1,-12.2
21,Cc1ccnc(NS(=O)(=O)c2ccc(NC(=O)COc3ccccc3)cc2)n1,31.3
22,Cc1cccc(N2CCN(C(=O)c3ccc(NS(=O)(=O)c4c(C)noc4C)cc3)CC2)c1C,-11.7

row,Structure (SMILES),"hERG current change (%, negative = inhibition) at 10uM [%]"
1,CC(=O)Nc1ccc(NC(=O)C(C)Oc2ccc(Cl)cc2Cl)cc1 (centres unmarked),3.61
2,O=C(C[n+]1ccccc1)N1CCCc2ccccc21.[Cl-],18.3
3,Cn1cc(SCC(=O)N2CCOCC2)c2ccccc21,3.8
4,CCC(C)C(=O)Nc1nc(C)c(-c2csc(Nc3cc(Cl)ccc3OC)n2)s1 (centres unmarked),1.5
5,CCOc1ccccc1NC(=O)c1cccc(NC(=O)CC(c2ccccc2)c2ccccc2)c1,-67.1
6,O=C(NC(=S)N1CCN(c2ccc([N+](=O)[O-])cc2)CC1)c1ccccc1,0.58
7,O=c1[nH]c2ccccc2cc1-c1nnn(-c2ccc(F)cc2)n1,-8.71
8,COc1ccc(Br)cc1C(=O)NC(=S)Nc1cc(-c2nc3ccccc3[nH]2)ccc1C,3.54
9,CC(=O)Nc1ccc(S(=O)(=O)Nc2cccc(-c3nc4ccccc4o3)c2)cc1,-14.8
10,Cc1ccc(S(=O)(=O)N2CCC(C(=O)NCC3CCCO3)CC2)cc1 (centres unmarked),3.13
11,CCCCn1c(N)c(N(CC)C(=O)CSCc2ccc(C)cc2)c(=O)[nH]c1=O,2.96
12,Cn1c(C(=O)O)c(C=O)c2ccccc21,47
13,CCC(=O)NNc1nc2c(F)cccc2s1,22.5
14,Cc1ccc(NC(=O)COC(=O)C2=COCCO2)cc1,13.3
15,Cc1ccc(SCc2cn3cccnc3n2)cc1,11.1
16,Cc1nc(C)n(C(C)CNC(=O)c2cccc(Br)c2)n1 (centres unmarked),13.5
17,COC(=O)c1sccc1NC(=O)c1cccc(F)c1,-4.99
18,CCOC(=O)c1ccc(N2C(=O)C(O)=C(C(C)=O)C2c2ccccn2)cc1 (centres unmarked),6
19,NC(=Nc1ccc(N)cc1)C(N)=Nc1ccc(N)cc1,11.4
20,Cc1cc(=O)oc2c3c(cc(OCC(=O)NCCCn4ccnc4)c12)OC(C)(C)CC3,-32.1
21,CCc1ccc(C(=O)COC(=O)c2cc([N+](=O)[O-])ccc2N2CCOCC2)cc1,-9.49
22,CC1CN(C2=Nc3cccc4cccc2c34)CC(C)O1 (centres unmarked),-47.6

row,Structure (SMILES),"hERG current change (%, negative = inhibition) at 10uM [%]"
1,C=C1C2C[C@H](O)C(C)(C)[C@@]2(O)[C@H](O)C[C@]23C[C@@](C)(O)[C@H](CC[C@H]12)[C@H]3OC(C)=O (some centres unmarked),13.4
2,O=C(NCC(O)COc1ccc([N+](=O)[O-])cc1)Nc1ccccc1 (centres unmarked),-49.4
3,Cc1cc(C)cc(C(=O)NCC(=O)N(C)CCOc2ccccc2)c1,-7.3
4,CCN(c1ccc(OC)cc1)S(=O)(=O)c1nnc(NC(=O)c2ccco2)s1,17
5,CS(=O)(=O)N(CC(=O)N1CCN(c2ccccc2)CC1)c1ccccc1Cl,-3.11
6,COc1cccc(/C=N/NC(=O)CC(C)O)c1OC/C=C/c1ccccc1 (centres unmarked),6.7
7,COc1ccc(OC)c(N2C(=O)NC(=O)/C(=C\c3ccc([N+](=O)[O-])s3)C2=O)c1,15.7
8,O=C(CCCc1ccccc1)Nc1cccc(C(=O)O)c1,17.9
9,COc1ccc(S(=O)(=O)Nc2cccc(S(=O)(=O)N3CCCC3)c2)cc1OC,-9.24
10,O=C(c1ccc(CS(=O)(=O)c2ccc(Br)cc2)o1)N1CCCC1,-47.3
11,Cc1ccc(NC(=O)Cn2nc(C)c([N+](=O)[O-])c2C)cc1C,35.7
12,O=C(Nc1ccccc1N1CCCCC1)c1ccc(Cl)c([N+](=O)[O-])c1,5.3
13,O=C(O)c1c(Cl)c(Cl)c(Cl)c(Cl)c1C(=O)N1CCCCCC1,12.6
14,CCn1c(SCC(=O)Nc2cc(OC)ccc2OC)nnc1C1CCCCC1,-13.5
15,CCN(CC)NC(=O)Nc1ccccc1,11.4
16,c1ccc(OCCSc2ncnc3nc[nH]c23)cc1,-7.82
17,CCCCC1=CC2=CC(=O)C(C)(OC(=O)CC)C(=O)C2=CN1C(CO)CO (centres unmarked),11.5
18,O=c1c(-c2ccccc2)c(O)cc(-c2ccncc2)n1-c1ccc(Cl)cc1,25
19,C=CCn1c(SCC(=O)c2ccc(O)c(O)c2)nnc1-c1cccc(Cl)c1,3.69
20,CC1(C)S[C@@H]2[C@H](NC(=O)Cc3ccccc3)C(=O)N2[C@H]1C(=O)[O-].[K+],4.46
